Data on one molecule can be found in US11866509B2, “Humanized antibodies against CEACAM1” (Famewave Ltd., priority 2014, dated 2024).

The target in test [1] is T1, CEACAM1 (Homo sapiens, UniProt P13688).
T1 sequence (P13688 35-526): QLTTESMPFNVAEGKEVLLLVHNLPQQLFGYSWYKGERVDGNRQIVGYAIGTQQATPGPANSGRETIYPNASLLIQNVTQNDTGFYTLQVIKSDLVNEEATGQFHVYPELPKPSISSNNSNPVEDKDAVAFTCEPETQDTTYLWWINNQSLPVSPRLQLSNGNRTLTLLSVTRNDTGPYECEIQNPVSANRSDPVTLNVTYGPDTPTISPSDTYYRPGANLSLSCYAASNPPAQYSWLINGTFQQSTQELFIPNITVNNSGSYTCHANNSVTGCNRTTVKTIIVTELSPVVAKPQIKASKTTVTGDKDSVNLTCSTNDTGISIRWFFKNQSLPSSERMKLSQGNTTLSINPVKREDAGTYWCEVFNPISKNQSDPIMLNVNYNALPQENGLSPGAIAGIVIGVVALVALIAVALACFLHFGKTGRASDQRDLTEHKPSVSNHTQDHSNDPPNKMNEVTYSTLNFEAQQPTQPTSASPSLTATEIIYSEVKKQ
The test can be described thus: In vitro functional assays for agonistic activity. In kind it is cell-based. An excerpt: CM-24 enhances the cytotoxic activity of effector cells in the presence of CEACAM1 positive tumor cells and in the context of a specific human leukocyte antigen (HLA)-restricted T cell reaction.

Test [2] concerns Human melanoma cells (SKMEL28). Kind of test: Cytotoxicity of human LAK cells against melanoma cells, antibody combination, LDH release. The following applies: CM-24 with mAb to human PD-1 (clone E12.2H7), 0.1-0.8 μg/ml each; anti-PD-1 added first. The format is cell-based. The protocol:
FIG. 6. Synergistic effects of anti-CEACAM1 and anti-PD-1 antibodies on the cytotoxicity of human LAK cells against human melanoma cells when anti-PD-1 antibodies are added prior to the addition of anti-CEACAM1 antibodies. Human melanoma cells were grown in the presence of IFN-ã to induce PD-L1 expression. Human LAK cells generated by activation of PBMCs from a healthy human donor with IL-2 were incubated with medium only (white), non-specific IgG antibody (black), various concentrations of a monoclonal antibody to human CEACAM1 (vertical lines), a monoclonal antibody to human PD-L1 (horizontal lines) or a combination of both antibodies (dots). Results represent an average of % cytotoxicity ±SE as determined by classical LDH release assay from triplicate wells per treatment. * P≤0.05 paired T-test compared to a-PD-L1 only. Combination index was calculated as described above.
Human melanoma cancer cells (MALME 3M) were grown in the presence of IFN-ã to induce PD-L1 expression. […] The combination index (CI) was calculated to be 0.15. In the same assay, the level of the cytotoxic protein granzyme B that is secreted upon cytotoxic cell activation was evaluated by commercial granzyme B ELISA Kit. […] The combination index (CI) was calculated to be 0.67. […]
For orientation: Release of lactate dehydrogenase indicates damage to the cell membrane.

For test [3], the target named is T2, CEACAM1 on human TIL (Homo sapiens, UniProt P13688).
T2 construct: endogenous in cells; host or cells: human tumor infiltrating lymphocytes (TIL) isolated from lungs of SCID-NOD mice
T2 sequence (P13688 35-526): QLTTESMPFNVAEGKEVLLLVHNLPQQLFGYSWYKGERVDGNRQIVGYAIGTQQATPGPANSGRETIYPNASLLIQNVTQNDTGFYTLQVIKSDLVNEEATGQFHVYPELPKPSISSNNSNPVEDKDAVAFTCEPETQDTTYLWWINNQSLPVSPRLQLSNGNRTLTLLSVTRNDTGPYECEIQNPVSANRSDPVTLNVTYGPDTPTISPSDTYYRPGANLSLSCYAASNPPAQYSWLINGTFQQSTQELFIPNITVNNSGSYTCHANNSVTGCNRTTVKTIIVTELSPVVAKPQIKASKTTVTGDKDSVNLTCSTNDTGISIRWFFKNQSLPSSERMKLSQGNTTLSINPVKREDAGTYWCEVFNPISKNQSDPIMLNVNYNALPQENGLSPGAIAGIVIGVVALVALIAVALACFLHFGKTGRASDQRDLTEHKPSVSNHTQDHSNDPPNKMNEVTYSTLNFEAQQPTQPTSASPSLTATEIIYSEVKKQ
The test can be described thus: CEACAM1 receptor occupancy on TIL isolated from lungs, flow cytometry with QuantiBrite. The format is in vivo. The protocol:
FIG. 14 is a bar histogram presenting the percentage of CEACAM1 receptor occupancy in TIL cells isolated from the lung lesions model.
At termination day, a flow cytometry based assay in combination with a QuantiBrite KIT was used in order to determine CEACAM1 receptor occupancy by CM-24 in human TIL isolated from the lungs of the treated mice. […] Examination of CEACAM1 RO values was performed using a flow cytometry based assay using PE conjugated CM-24 antibody and a QuantiBrite Kit (BD) Results represent average±SE of RO values on TIL isolated from the lung of 8-9 mice per treatment group. Data was analyzed using Kaluza software.
(Flow cytometry measures light scatter and fluorescence of single cells or particles in a stream.)

B1: CM-24: back-mutated humanized IgG4 anti human CEACAM1 monoclonal antibody; light chain SEQ ID NO: 52, heavy chain SEQ ID NO: 53 (antibody)
heavy: QVQLVQSGAEVKKPGASVKVSCKASGYAFTNNLIEWVRQAPGQGLEWIGVINPGSGDTNYNEKFKGRVTMTADKSISTAYMELSRLRSDDTAVYYCARGDYYGGFAVDYWGQGTTVTVSSASTKGPSVFPLAPCSRSTSESTAALGCLVKDYFPEPVTVSWNSGALTSGVHTFPAVLQSSGLYSLSSVVTVPSSSLGTKTYTCNVDHKPSNTKVDKRV[letters of human IgG4 Fc with S228P (EU numbers) left out]
light: DIQMTQSPSSLSASVGDRVTITCRTSQDIGNYLNWYQQKPGKAVKLLIYYTSRLHSGVPSRFSGSGSGTDYTLTISSLQPEDIATYFCQQGKSLPRTFGGGTKVEIKRTVAAPSVFIFPPSDEQLKSGTASVVCLLNNFYPREAKVQWKVDNALQSGNSQESVTEQDSKDSTYSLSSTLTLSKADYEKHKVYACEVTHQGLSSPVTKSFNRGEC
Regarding B1, in test [1], the agonistic activity entry is on record as “does not induce agonistic activity”. In addition, in test [2], the “combination index (CI)” value is on record as below 0.8. Further, the “Receptor occupancy (RO)” value in test [3] (1 mg/kg) is given as 50%; in test [3] (3 mg/kg) it was above 90%; in test [3] (6 mg/kg), above 90%; in test [3] (10 mg/kg), above 90%.
